Measurements published in publication PMC6919601, “Identification of Plasmodium dipeptidyl aminopeptidase allosteric inhibitors by high throughput screening” (PLoS ONE, 2019).
Hit rate of the full screen: of about 110,000 compounds, about 230 (0.21%) showed an effect of 50% or more. The list shows a part of the results.

Each compound was assayed against DPAP1 (Plasmodium falciparum, UniProt Q8IIJ9) (assay: primary screen, percent inhibition; read by cleavage of a fluorogenic dipeptide substrate; higher = more effect of the substance).
Sequence of DPAP1 (Q8IIJ9 whole entry, looked up): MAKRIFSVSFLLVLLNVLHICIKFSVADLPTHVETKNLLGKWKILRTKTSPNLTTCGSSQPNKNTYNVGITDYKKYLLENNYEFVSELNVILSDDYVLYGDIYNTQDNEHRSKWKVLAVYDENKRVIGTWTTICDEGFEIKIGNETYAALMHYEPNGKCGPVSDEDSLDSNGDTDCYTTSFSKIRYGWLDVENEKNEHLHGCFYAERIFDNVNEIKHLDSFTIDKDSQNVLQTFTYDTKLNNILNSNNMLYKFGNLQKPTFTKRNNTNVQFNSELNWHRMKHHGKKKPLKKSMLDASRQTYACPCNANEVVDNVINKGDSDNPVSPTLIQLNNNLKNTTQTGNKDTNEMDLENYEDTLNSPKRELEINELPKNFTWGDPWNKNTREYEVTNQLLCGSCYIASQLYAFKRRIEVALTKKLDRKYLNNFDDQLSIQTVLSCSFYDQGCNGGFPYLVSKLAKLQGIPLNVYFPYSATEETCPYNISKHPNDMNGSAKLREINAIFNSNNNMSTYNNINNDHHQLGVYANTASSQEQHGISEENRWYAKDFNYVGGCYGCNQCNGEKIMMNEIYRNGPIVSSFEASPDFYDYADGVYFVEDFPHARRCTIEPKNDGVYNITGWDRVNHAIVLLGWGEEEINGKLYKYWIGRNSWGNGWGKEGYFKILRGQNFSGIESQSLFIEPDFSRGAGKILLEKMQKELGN
Design: species or system P. falciparum D10 trophozoite lysates; single well
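Also: 30 min substrate incubation versus DMSO and 10 µM JCP410 controls.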

With `Cc1ccc(C2CC(=O)N=C(NC(=O)c3ccc(C(C)(C)C)cc3)N2)cc1` (centres unmarked) as the compound, how does the “% Inhibition @ 10 uM” value read?
The value was -1.96%.

With `CCCCn1c(-c2ccccc2)cn2c3c(=O)n(C)c(=O)n(C)c3nc12` as the compound, how does the “% Inhibition @ 10 uM” value read?
The value was 5.38%.

Which “% Inhibition @ 10 uM” value does the source give for `O=C(O)c1c(CNCc2cccc(Cl)c2)c2ccccc2n1Cc1cccc(F)c1` here?
Its value is -0.517%.

`O=C(Cc1cccs1)N1CCC(Cc2ccccc2)CC1` was tested. Which “% Inhibition @ 10 uM” value did it give?
The value was -4.16%.

Which “% Inhibition @ 10 uM” value does the source give for `COc1ccc(-n2nnnc2C2CCN(S(=O)(=O)c3ccccc3C(F)(F)F)CC2)cc1` here?
The value was 3.27%.

Which “% Inhibition @ 10 uM” value does the source give for `CCOC(=O)N1CCC(NC(=O)c2cc3cc4ccc(OC)cc4nc3s2)CC1` here?
The value was 0.675%.

Which “% Inhibition @ 10 uM” value does the source give for `O=C(O)CNS(=O)(=O)/C=C/c1ccccc1` here?
The value was -6.82%.

For `O=S(=O)(Nc1ccccc1O)c1ccc2ccccc2c1`, which “% Inhibition @ 10 uM” value is on record?
Its value is -0.424%.

For `CCC1(O)CC(c2ccccc2)=NN1C(=O)c1ccccc1F` (centres unmarked), which “% Inhibition @ 10 uM” value is on record?
Its value is 8.19%.

`COc1ccc(/C=C2\CCC(C3CCCC3)C2=O)cc1Cn1cccn1` (centres unmarked) was tested. Which “% Inhibition @ 10 uM” value did it give?
The value was 8.9%.

With `COc1ccccc1NC(=O)Cc1ccc(F)cc1F` as the compound, how does the “% Inhibition @ 10 uM” value read?
Its value is 0.273%.

For `O=C(c1ccc(F)cc1)n1nc(-c2ccccc2)nc1NCc1ccccc1`, which “% Inhibition @ 10 uM” value is on record?
The value was 2.31%.

`COC(=O)c1cc(O)c2c(C)nc(C(Cl)(Cl)Cl)nc2n1` was tested. Which “% Inhibition @ 10 uM” value did it give?
The value was -3.64%.

`COc1ccc(S(=O)(=O)NCc2ccccn2)cc1C` was tested. Which “% Inhibition @ 10 uM” value did it give?
The value was 3.49%.

How did the “% Inhibition @ 10 uM” value turn out when `Cc1cc(Br)c(NC(=O)C2CCCN2C(=O)OC(C)(C)C)cc1C` (centres unmarked) was run?
The value was -6.81%.

With `O=C(c1cccc(Cl)c1)n1nc(-c2cccnc2)nc1NCc1cccs1` as the compound, how does the “% Inhibition @ 10 uM” value read?
Its value is 3.81%.

Which “% Inhibition @ 10 uM” value does the source give for `COc1ccc(S(=O)(=O)Nc2ccc(O)c(C(=O)O)c2)cc1` here?
The value was 2.67%.

Which “% Inhibition @ 10 uM” value does the source give for `O=C(CSc1nc2ccccc2c(=O)n1C1CCCCC1)N1CCCCC1` here?
Its value is 6.1%.

With `Clc1ccc(N2CCN(Cc3c(Cl)cccc3Cl)CC2)cc1` as the compound, how does the “% Inhibition @ 10 uM” value read?
Its value is -4.75%.

With `Cc1[nH]c2ccc(F)cc2c1CCNC(=S)NC(C)(C)C` as the compound, how does the “% Inhibition @ 10 uM” value read?
Its value is 4.41%.

`c1ccc(Cn2c3c(c4ccccc42)CCc2c-3cnn2-c2ccccc2)cc1` was tested. Which “% Inhibition @ 10 uM” value did it give?
Its value is -2.63%.

With `CCCOc1ccc(C(=O)C2=C(O)C(=O)N(Cc3cccnc3)C2c2ccc(OC)cc2)cc1C` (centres unmarked) as the compound, how does the “% Inhibition @ 10 uM” value read?
Its value is -7.58%.

`O=C1C(=Cc2ccc(-c3ccc(F)cc3F)o2)C(=O)c2ccccc21` was tested. Which “% Inhibition @ 10 uM” value did it give?
The value was 4.66%.

With `N=C1S/C(=C\c2ccc(-c3cccc(F)c3)o2)C(=O)N1c1nonc1N` as the compound, how does the “% Inhibition @ 10 uM” value read?
The value was 1.86%.

With `CCOC(=O)c1ccc(Oc2nc(C)cc(OC)n2)cc1` as the compound, how does the “% Inhibition @ 10 uM” value read?
The value was 0.884%.

Which “% Inhibition @ 10 uM” value does the source give for `COc1ccc(Cn2nnc3c(O)nc(C4CCCN(S(=O)(=O)c5ccccc5)C4)nc32)cc1` (centres unmarked) here?
The value was -2.28%.

For `CCOc1ccc(-c2nc3c(c(SCC(N)=O)n2)Cc2cccc(C)c2O3)cc1`, which “% Inhibition @ 10 uM” value is on record?
Its value is -8.42%.

With `CCOC(=O)c1cc(-c2ccc3c(c2)OCCO3)[nH]n1` as the compound, how does the “% Inhibition @ 10 uM” value read?
The value was 4.98%.

`O=C(O)CCCN1Cc2ccccc2C1` was tested. Which “% Inhibition @ 10 uM” value did it give?
Its value is 3.93%.

How did the “% Inhibition @ 10 uM” value turn out when `CCOC(=O)C1=C(C)N=c2s/c(=C\c3ccc(N(C)C)o3)c(=O)n2C1c1ccc(OC)cc1OC` (centres unmarked) was run?
Its value is 9.03%.

Which “% Inhibition @ 10 uM” value does the source give for `COc1cc(C2C(C#N)=C(N)Oc3cc(O)ccc32)cc(OC)c1OC` (centres unmarked) here?
Its value is -4.6%.

For `O=C(C1CC(c2ccccc2F)=NO1)N1CCC2(CC1)OCCO2` (centres unmarked), which “% Inhibition @ 10 uM” value is on record?
The value was -3.94%.

How did the “% Inhibition @ 10 uM” value turn out when `O=C(NCc1ccccc1Cl)C1CCCN(S(=O)(=O)c2cccc3cccnc23)C1` (centres unmarked) was run?
Its value is -6.52%.

With `Cc1cc2ncn(C(C)c3ccccc3)c2cc1C` (centres unmarked) as the compound, how does the “% Inhibition @ 10 uM” value read?
The value was -0.764%.

With `CCOc1ccc(N(CC(=O)Nc2ccccc2C)S(=O)(=O)c2ccc(C)cc2)cc1` as the compound, how does the “% Inhibition @ 10 uM” value read?
Its value is -1.24%.

With `CC(C)c1ccc(NC(=O)c2ccc(N(C)C)cc2)cc1` as the compound, how does the “% Inhibition @ 10 uM” value read?
Its value is -3.95%.

Which “% Inhibition @ 10 uM” value does the source give for `CC1CN(S(=O)(=O)Cc2ccccc2)CC(C)O1` (centres unmarked) here?
The value was 0.219%.

Which “% Inhibition @ 10 uM” value does the source give for `CCC(O)c1nc2ccccc2n1CC1CCCCC1` (centres unmarked) here?
The value was -1.31%.

For `CCOc1ccc(/C=C/c2nc(O)c([N+](=O)[O-])c(O)n2)cc1`, which “% Inhibition @ 10 uM” value is on record?
Its value is 0.634%.

Which “% Inhibition @ 10 uM” value does the source give for `Cc1ccccc1NC(=O)CCCCCCC(=O)Nc1ccccc1C` here?
Its value is 1.27%.

With `CCN(CC)S(=O)(=O)c1ccc(Cl)c(C(=O)Nc2nccs2)c1` as the compound, how does the “% Inhibition @ 10 uM” value read?
Its value is -8.31%.

For `O=S(=O)(c1cccc(C(F)(F)F)c1)N1CCN(Cc2ccc3c(c2)OCO3)CC1`, which “% Inhibition @ 10 uM” value is on record?
Its value is -1.57%.

For `CCOC(=O)c1ccc(NC(=O)Nc2ccc(Cl)c(Cl)c2)cc1`, which “% Inhibition @ 10 uM” value is on record?
Its value is 2.55%.

How did the “% Inhibition @ 10 uM” value turn out when `CN(C)CCCn1c(N)c(S(=O)(=O)c2ccccc2)c2nc3ccccc3nc21` was run?
The value was -1.45%.

With `CCc1cc(C(=O)CCC(=O)OC)c(CC)s1` as the compound, how does the “% Inhibition @ 10 uM” value read?
The value was 2.33%.

With `COc1ccc(C2CC(=O)NC3=C2C(=O)CC(c2cccs2)C3)cc1OC` (centres unmarked) as the compound, how does the “% Inhibition @ 10 uM” value read?
Its value is -8.2%.

Which “% Inhibition @ 10 uM” value does the source give for `COc1ccc(C2C(C#N)=C(N)Oc3[nH]nc(C)c32)cc1COc1cccc(Br)c1` (centres unmarked) here?
Its value is -0.25%.

How did the “% Inhibition @ 10 uM” value turn out when `CC1CC(C)CN(C(=O)NCc2noc3ccccc23)C1` (centres unmarked) was run?
The value was 0.857%.

`Fc1ccccc1N1CCN(CC2CC3C=CC2C3)CC1` (centres unmarked) was tested. Which “% Inhibition @ 10 uM” value did it give?
Its value is 2.7%.

`CCOc1ccc(C2C3=C(O)CC(C)(C)CC3=Nc3nn(-c4ccccc4)c(O)c32)cc1` (centres unmarked) was tested. Which “% Inhibition @ 10 uM” value did it give?
Its value is 1.19%.
